The chains are these.
B1: glmS ribozyme (parent)
chain: AUAAAAGCGCCAGAACUACAGAAAUGUAGUUGACGAGGAGGAGGUUUAUCGAAUUUUCGGCGGAUGCCUCCAAA

Conditions in all cases: with glucosamine-6-phosphate
Data set [1] covers variants of B1. As to the kind of experiment: kcat; higher = faster cleavage; RNA array. Summed up:
(§1)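 Using a hybridised Cy3 probe at 37 °C, barcoded ribozyme variants transcribed in situ by E. coli RNA polymerase on sequenced MiSeq chips were monitored across tiles imaged over ~14 h. The flow contained glucosamine-6-phosphate from 40 μM to 10 mM in HEPES/KCl/Mg(OAc)2 buffer. Signals were normalised to baseline and to non-cleaving reference variants before per-tile medians were fit to one- or two-exponential decays to yield kobs. Weighted Michaelis–Menten fits across concentrations gave kcat and KM.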

Variants of B1 are the subject of data set [2]. As to the kind of experiment: self-cleavage kobs at 640 uM GlcN6P; higher = faster cleavage; RNA array. Summed up:
as §1

Variants of B1 are the subject of data set [3]. As to the kind of experiment: self-cleavage kobs at 40 uM GlcN6P; higher = faster cleavage; RNA array. Summed up: as §1
The variants in data set [4] derive from B1. As to the kind of experiment: self-cleavage kobs at 10000 uM GlcN6P; higher = faster cleavage; RNA array. Summed up:
as §1

In data set [5] the parent is B1. As to the kind of experiment: self-cleavage kobs at 2500 uM GlcN6P; higher = faster cleavage; RNA array. Summed up:
as §1

Data set [6] covers variants of B1. As to the kind of experiment: self-cleavage kobs at 160 uM GlcN6P; higher = faster cleavage; RNA array. In a few lines: as §1

± gives the standard error. Variants at the floor of the assay are shown more often than the library holds them.

As a reminder, the kcat is the maximal rate divided by the concentration of active sites. For C11G G35A, the catalytic constant (kcat) with glucosamine-6-phosphate [1] is less than 1e-05 s⁻¹. In addition, the “self-cleavage kobs at 640 uM GlcN6P” value in the data set with glucosamine-6-phosphate [2] was less than 1e-05 s⁻¹.
As to A1C, the “self-cleavage kobs at 40 uM GlcN6P” value in the data set with glucosamine-6-phosphate [3] came out at 0.00111 ± 0.00028 s⁻¹.
As for A6G A15C U31G A64G C70U, the “self-cleavage kobs at 40 uM GlcN6P” value with glucosamine-6-phosphate [3] was less than 1e-05 s⁻¹. The “self-cleavage kobs at 10000 uM GlcN6P” value with glucosamine-6-phosphate [4] was less than 1e-05 s⁻¹.
A6C U47C U54A G59A C70U: the “self-cleavage kobs at 40 uM GlcN6P” value with glucosamine-6-phosphate [3] was less than 1e-05 s⁻¹.
For G62U C70U, the kcat with glucosamine-6-phosphate [1] is less than 1e-05 s⁻¹.
For C16A G51U, the catalytic constant (kcat) in the data set with glucosamine-6-phosphate [1] is less than 1e-05 s⁻¹. Moreover, the “self-cleavage kobs at 40 uM GlcN6P” value with glucosamine-6-phosphate [3] is less than 1e-05 s⁻¹. In the data set with glucosamine-6-phosphate [4], the “self-cleavage kobs at 10000 uM GlcN6P” value was less than 1e-05 s⁻¹.
With A6G G32U, in the data set with glucosamine-6-phosphate [3], the “self-cleavage kobs at 40 uM GlcN6P” value was less than 1e-05 s⁻¹.
Take G13U C61G: the kcat with glucosamine-6-phosphate [1] is less than 1e-05 s⁻¹. In the data set with glucosamine-6-phosphate [4], the “self-cleavage kobs at 10000 uM GlcN6P” value is less than 1e-05 s⁻¹.
Regarding A6G G43U C61G, in the data set with glucosamine-6-phosphate [3], the “self-cleavage kobs at 40 uM GlcN6P” value is less than 1e-05 s⁻¹. Further, in the data set with glucosamine-6-phosphate [5], the “self-cleavage kobs at 2500 uM GlcN6P” value is less than 1e-05 s⁻¹. Besides, the “self-cleavage kobs at 10000 uM GlcN6P” value with glucosamine-6-phosphate [4] was less than 1e-05 s⁻¹.
For A6G G9U G41A A48G G59U, the “self-cleavage kobs at 40 uM GlcN6P” value in the data set with glucosamine-6-phosphate [3] was less than 1e-05 s⁻¹.
Take A15C G51U: the turnover number (kcat) with glucosamine-6-phosphate [1] is less than 1e-05 s⁻¹. Besides, the “self-cleavage kobs at 2500 uM GlcN6P” value with glucosamine-6-phosphate [5] is less than 1e-05 s⁻¹.
Take G37A A48U: in the data set with glucosamine-6-phosphate [1], the kcat is less than 1e-05 s⁻¹. Further, the “self-cleavage kobs at 160 uM GlcN6P” value with glucosamine-6-phosphate [6] is less than 1e-05 s⁻¹.
Turning to A6C A52U, the “self-cleavage kobs at 40 uM GlcN6P” value with glucosamine-6-phosphate [3] is less than 1e-05 s⁻¹. Also, the “self-cleavage kobs at 640 uM GlcN6P” value with glucosamine-6-phosphate [2] is less than 1e-05 s⁻¹. In addition, the “self-cleavage kobs at 160 uM GlcN6P” value with glucosamine-6-phosphate [6] is less than 1e-05 s⁻¹. Besides, the “self-cleavage kobs at 2500 uM GlcN6P” value with glucosamine-6-phosphate [5] was less than 1e-05 s⁻¹. For the same variant, the “self-cleavage kobs at 10000 uM GlcN6P” value with glucosamine-6-phosphate [4] is less than 1e-05 s⁻¹.
Take G32A A36C: in the data set with glucosamine-6-phosphate [1], the catalytic constant (kcat) was less than 1e-05 s⁻¹. The “self-cleavage kobs at 40 uM GlcN6P” value in the data set with glucosamine-6-phosphate [3] was less than 1e-05 s⁻¹.
As to G29U G51A, the kcat in the data set with glucosamine-6-phosphate [1] is less than 1e-05 s⁻¹.
Regarding U47G G63A, the kcat in the data set with glucosamine-6-phosphate [1] is less than 1e-05 s⁻¹. Also, the “self-cleavage kobs at 40 uM GlcN6P” value in the data set with glucosamine-6-phosphate [3] was less than 1e-05 s⁻¹. Moreover, the “self-cleavage kobs at 160 uM GlcN6P” value with glucosamine-6-phosphate [6] is less than 1e-05 s⁻¹. Besides, the “self-cleavage kobs at 2500 uM GlcN6P” value with glucosamine-6-phosphate [5] was less than 1e-05 s⁻¹. The “self-cleavage kobs at 10000 uM GlcN6P” value with glucosamine-6-phosphate [4] was less than 1e-05 s⁻¹.
For the variant A6C U30C, the “self-cleavage kobs at 40 uM GlcN6P” value with glucosamine-6-phosphate [3] is less than 1e-05 s⁻¹. In addition, the “self-cleavage kobs at 640 uM GlcN6P” value with glucosamine-6-phosphate [2] is less than 1e-05 s⁻¹. Moreover, the “self-cleavage kobs at 160 uM GlcN6P” value in the data set with glucosamine-6-phosphate [6] is less than 1e-05 s⁻¹. Besides, the “self-cleavage kobs at 2500 uM GlcN6P” value in the data set with glucosamine-6-phosphate [5] is less than 1e-05 s⁻¹.
With U30C G38U, in the data set with glucosamine-6-phosphate [1], the turnover number (kcat) is less than 1e-05 s⁻¹.
With G38C G60U, the catalytic constant (kcat) with glucosamine-6-phosphate [1] is less than 1e-05 s⁻¹. For the same variant, in the data set with glucosamine-6-phosphate [3], the “self-cleavage kobs at 40 uM GlcN6P” value is less than 1e-05 s⁻¹. For the same variant, the “self-cleavage kobs at 640 uM GlcN6P” value with glucosamine-6-phosphate [2] was less than 1e-05 s⁻¹. Also, the “self-cleavage kobs at 2500 uM GlcN6P” value with glucosamine-6-phosphate [5] is less than 1e-05 s⁻¹. In addition, the “self-cleavage kobs at 10000 uM GlcN6P” value with glucosamine-6-phosphate [4] was less than 1e-05 s⁻¹.
With C11U C50U, the catalytic constant (kcat) in the data set with glucosamine-6-phosphate [1] is less than 1e-05 s⁻¹. Also, the “self-cleavage kobs at 160 uM GlcN6P” value with glucosamine-6-phosphate [6] is less than 1e-05 s⁻¹.
Regarding A6C A12G C34U G35U G37A U46C, the “self-cleavage kobs at 40 uM GlcN6P” value with glucosamine-6-phosphate [3] is less than 1e-05 s⁻¹. Besides, the “self-cleavage kobs at 640 uM GlcN6P” value with glucosamine-6-phosphate [2] is less than 1e-05 s⁻¹.
Turning to A6C G7U G9C A53G, the “self-cleavage kobs at 40 uM GlcN6P” value with glucosamine-6-phosphate [3] was less than 1e-05 s⁻¹. Further, the “self-cleavage kobs at 10000 uM GlcN6P” value with glucosamine-6-phosphate [4] is less than 1e-05 s⁻¹.
As for G43A U69A, the kcat with glucosamine-6-phosphate [1] was less than 1e-05 s⁻¹. Also, the “self-cleavage kobs at 40 uM GlcN6P” value with glucosamine-6-phosphate [3] is less than 1e-05 s⁻¹. For the same variant, in the data set with glucosamine-6-phosphate [5], the “self-cleavage kobs at 2500 uM GlcN6P” value is less than 1e-05 s⁻¹. In addition, the “self-cleavage kobs at 10000 uM GlcN6P” value with glucosamine-6-phosphate [4] is less than 1e-05 s⁻¹.
In the case of C10U G32C U55G, in the data set with glucosamine-6-phosphate [1], the kcat was less than 1e-05 s⁻¹.
On to A1U U2G A3G C8G A12U G63C C68A, for which, in the data set with glucosamine-6-phosphate [3], the “self-cleavage kobs at 40 uM GlcN6P” value was less than 1e-05 s⁻¹.
Consider U54A G62A, for which, in the data set with glucosamine-6-phosphate [1], the kcat is less than 1e-05 s⁻¹. Further, the “self-cleavage kobs at 10000 uM GlcN6P” value in the data set with glucosamine-6-phosphate [4] is less than 1e-05 s⁻¹.
Regarding A6G A52U C61G, in the data set with glucosamine-6-phosphate [3], the “self-cleavage kobs at 40 uM GlcN6P” value was less than 1e-05 s⁻¹.
A15U G60C: the turnover number (kcat) in the data set with glucosamine-6-phosphate [1] was less than 1e-05 s⁻¹. For the same variant, the “self-cleavage kobs at 640 uM GlcN6P” value in the data set with glucosamine-6-phosphate [2] was less than 1e-05 s⁻¹. Further, in the data set with glucosamine-6-phosphate [6], the “self-cleavage kobs at 160 uM GlcN6P” value was less than 1e-05 s⁻¹. In addition, in the data set with glucosamine-6-phosphate [4], the “self-cleavage kobs at 10000 uM GlcN6P” value was less than 1e-05 s⁻¹.

For the origin of these results see the supplement of paper PMC7125110.
